# Laboratory results as given in patent US20250179172A1 (HAINAN SIMCERE ZAIMING PHARMACEUTICAL, published 2025).
# B1: H65 scFv-hFc (Fc fusion)
# chain: NIQLVQSGPELKKPGETVKISCKASGYTFTNYGMNWVKQAPGKGLRWMGWINTHTGEPTYADDFKGRFAFSLETSASTAYLQINNLKNEDTATYFCTRRGYDWYFDVWGAGTTVTVSSGGGGSGGGGSGGGGSDIKMTQSPSSMYASLGERVTITCKASQDINSYLSWFHHKPGKSPKTLIYRANRLVDGVPSRFSGSGSGQDYSLTISSLDYEDMGIYYCQQYDESPWTFGGGTKLEMK[human IgG1 Fc with changes not printed]
# notes: also called H65 antibody
# B2: S005-NB144-43 VHH-hFc (Fc fusion)
# chain: QVQLVESGGGLVQPGGSLRLSCAASGFTWDYYAIGWFRQAPGKEREGVSCIDSSGGSINYLDSVKGRFTVSRDNAKNTVYLQMDSLKPEDTAIYYCAASSYWDCAVPDTGSPKTGHLESYFGSWGQGTQVIVSS[human IgG1 Fc with changes not printed]
# notes: VHH fused to human IgG1 Fc; no linker stated; also called S002-NB144-43
# B3: S005-NB144-73 VHH-hFc (Fc fusion)
# chain: EVQVVESGGGLVQAGGSLRLSCAASGDTICISAMYWYRQAPGKAREMVAAITSGGSTYYEDSVMGRFTIFRENAKNTVYLQMNSLKPEDTAVYYCNADIAGHNCSGYLKEYWGQGTQVTVSA[human IgG1 Fc with changes not printed]
# notes: VHH fused to human IgG1 Fc; no linker stated; also called S002-NB144-73
# B4: S005-NB145-3 VHH-hFc (Fc fusion)
# chain: QVQLVESGGGLVQPGGSLRLSCAASGFSLDYYAIGWFRQAPGKEREGVSYISPSDGRTYYADSVKGRFTISRDNAKNTVYLQMNSLKPEDTAVYYCATDWGSTSFDYGLKLSPTQYGYWGQGTQVTVSS[human IgG1 Fc with changes not printed]
# notes: VHH fused to human IgG1 Fc; no linker stated
# B5: S005-NB145-92 VHH-hFc (Fc fusion)
# chain: EVQLVESGGGLVQPGGSLRLSCAASGFSLDYYAIGWFRQAPGKEREGVSYISASDGSTYYADSVKGRFTISRDNAKNTVYLQMNSLKPEDTAVYYCATDWGSGSFNYGLRLSPTQYDYWGQGTQVTVSS[human IgG1 Fc with changes not printed]
# notes: as for B4
# B6: S005-NB145-22 VHH-hFc (Fc fusion)
# chain: QVQLVESGGGLVQAGGSLRLSCAVSGRTLSTVVVGWFRQTPGREREFVAVSRSGGATGYADSVKDRFTISRDNAKNTVALQMNSLKPEDTAVYYCAGRGSGLYGSSWYNQIQEYDGWGQGTQVTVSS[human IgG1 Fc with changes not printed]
# notes: as for B4
# B7: S005-NB145-74 VHH-hFc (Fc fusion)
# chain: EVQLVESGGGLVQAGGSLRLSCAASESTFSITAMGWYRQAPGKQRELVAAITSPGGSTNYADSVKGRFTISRDNAKNTMLLQMNSLKPEDTAVYYCNADINHGSGYYTVSWGQGTQVTVSS[human IgG1 Fc with changes not printed]
# notes: as for B4
# B8: S005-NB144-4 VHH-hFc (Fc fusion)
# chain: EVQVVESGGGLVQAGGSLRLSCAASGSIFSINAMGWYRQAPGKEREVVAAISNGGNTYYEDSVMGRFTISRDNAKGTLYLQMNGLKPEDTAVYYCNADTVVGGGLLTEVWGQGTLVTVSS[human IgG1 Fc with changes not printed]
# notes: as for B4
# B9: S005-NB144-3 VHH-hFc (Fc fusion)
# chain: QLQLVESGGGLVQPGGSLRLSCAASGFTFSSYAMSWYRQAPGKERELVAAITSAGGSTTYADSVKDRFTISRDNAKNTVSLQMNSLKPEDTAVYYCNAYCTGYVCHEGGYDYWGQGTQVTVSS[human IgG1 Fc with changes not printed]
# notes: VHH variable region recombined into vector BI3.4-huIgG1 with signal peptide and human IgG1 Fc; no linker between VHH and Fc is stated
# B10: S005-NB144-6 VHH-hFc (Fc fusion)
# chain: QVQLVESGGGLVQAGGSLRLSCAASGSIFSISVMGWYRQAPGKERETVAVISSGGSTYYADSVKGRFTISRDNAKNTLYLQMNSLKPEDTAVYYCNADFETASGSPLYESWGQGTQVTVSS[human IgG1 Fc with changes not printed]
# notes: as for B4
# B11: S005-NB144-7 VHH-hFc (Fc fusion)
# chain: EVQVVESGGGLVQAGGSLRLSCAASGSIFSINLLGWYRQAPGKERESVAILSSGGSTYYADSVKGRFTISRDNVKNMLYLQMNSLKPEDTAVYYCNAVGGIATLRDYWGQGTQVTVSS[human IgG1 Fc with changes not printed]
# notes: as for B4
# B12: S005-NB144-31 VHH-hFc (Fc fusion)
# chain: EVQVVESGGGLVQPGGSLRLSCAASGFTLDYYAIGWFRQAPGKEREGLSCISTSGGSTNYADSVKGRFTISRDNAKNTVYLQMNSLKPEDTAVYYCAASSFWDCAVVGTGSPKTGHLESVFGSWGQGTQVTVSS[human IgG1 Fc with changes not printed]
# notes: VHH fused to human IgG1 Fc; no linker stated; also called S002-NB144-31
# Target: T1, human CD5 (Arg25-Pro372)-His protein (Acro, Cat. No. CD5-H52H5) (human, UniProt P06127 25-372)
# T1 construct: range 25-372; also called human CD5-His; hCD5-His; not shown: His tag
# T1 sequence (looked up): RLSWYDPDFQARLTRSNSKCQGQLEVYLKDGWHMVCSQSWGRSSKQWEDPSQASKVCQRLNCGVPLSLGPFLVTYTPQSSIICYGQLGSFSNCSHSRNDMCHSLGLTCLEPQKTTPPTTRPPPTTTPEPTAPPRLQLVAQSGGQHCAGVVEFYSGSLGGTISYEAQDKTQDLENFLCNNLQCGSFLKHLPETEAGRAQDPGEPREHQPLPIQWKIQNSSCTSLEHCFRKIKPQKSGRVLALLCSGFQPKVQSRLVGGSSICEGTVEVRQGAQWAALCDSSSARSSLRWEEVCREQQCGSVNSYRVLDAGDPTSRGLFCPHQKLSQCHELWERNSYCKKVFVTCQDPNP
# Test: ELISA on hCD5-His, antibody 1 nM
# Protocol: (§1) The binding activity of the H65 antibody prepared above with human CD5 protein was subjected to ELISA assay. A purchased commercial antigen (human CD5-His) was diluted with PBS to obtain a final concentration of 2 μg/mL, and then added to a 96-well ELISA plate with 100 µL/well. The plate was sealed with a plastic film and incubated at 4° C. over the night, washed twice with PBS in the next day, added with a blocking solution [PBS+2% (w/w) BSA] and blocked at room temperature for 2 h. The blocking solution was drained out, and 100 nM of the H65 antibody or negative control antibody hIgG1 after gradient dilution was added, namely, the obtained product was the antibody Anti-HEL-hIgG1 against hen egg lysozyme (purchased from Biointron, Cat. No. B117901) with 50 μl per well. After incubation for 2 h at 37° C., the plate was washed for 3 times with PBS. A secondary antibody labeled with HRP (horseradish peroxidase) (A0170, purchased from Sigma) was added. After incubation for 2 h at 37° C., the plate was washed for 5 times with PBS. A TMB substrate was added with 50 μL/well and incubated at room temperature for 30 min, then a stop solution (1.0 N HCl) was added with 50 μL/well.
# (§2) To assay the binding activity of VHH-hFc to human CD5 protein, ELISA assay was performed according to the method described in Example 2.2. […] IgG control is hIgG1, and data in the table are values of OD_{450 nm}.
row,Binder,OD450 [OD450]
1,B1,1.87
2,B2,1.84
3,B3,1.65
4,B4,1.83
5,B5,1.78
6,B6,1.67
7,B7,1.92
8,B8,2.77
9,B9,1.7
10,B10,1.84
11,B11,1.55
12,B12,1.84

# Target: T2, human CD5, full length, on cells (Jurkat, endogenous; CHO-K1-human CD5, transfected) (human, UniProt P06127 25-495)
# T2 construct: Jurkat cells carry the endogenous protein; also called hCD5; CHO-K1-hCD5-2B2
# T2 sequence: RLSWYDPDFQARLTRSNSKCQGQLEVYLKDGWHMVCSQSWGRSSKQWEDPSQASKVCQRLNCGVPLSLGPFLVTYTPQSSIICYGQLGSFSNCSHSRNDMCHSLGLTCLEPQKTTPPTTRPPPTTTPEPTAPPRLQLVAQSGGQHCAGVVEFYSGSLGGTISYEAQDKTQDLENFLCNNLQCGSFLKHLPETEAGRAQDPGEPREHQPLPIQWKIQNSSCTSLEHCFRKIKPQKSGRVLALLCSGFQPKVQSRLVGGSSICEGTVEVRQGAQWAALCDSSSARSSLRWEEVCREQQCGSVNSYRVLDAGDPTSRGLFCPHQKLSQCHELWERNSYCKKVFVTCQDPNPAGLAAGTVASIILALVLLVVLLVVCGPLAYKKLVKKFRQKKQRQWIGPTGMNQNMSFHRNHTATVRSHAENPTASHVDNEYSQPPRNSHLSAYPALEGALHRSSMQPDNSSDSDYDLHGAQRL
# Test: FACS on CHO-K1-human CD5 cells
# Text: (§3) The desired cells were expanded to a logarithmic growth phase in a T-75 cell culture flask. Adherent cells CHO-K1-human CD5 were removed from the culture medium by pipetting, and the cells were washed twice with a PBS buffer, digested with trypsin, and washed twice with a PBS buffer again after the digestion was stopped. For suspension cells Jurkat, the medium supernatant was discarded by direct centrifugation, and the cell pellet was washed twice with PBS. After the cells obtained in the last step were subjected to cell counting, the cell pellet was resuspended to 2×10⁶ cells/mL with a blocking solution [PBS+2% (w/w) BSA] and added to a 96-well FACS reaction plate with 50 μL/well. The VHH-hFc or control antibody was added with 50 μL/well, and the plate was incubated on ice for 2 h. […] After the plate was centrifuged and washed for 5 times with a PBS buffer, the results were assayed and analyzed by FACS (FACS Canto™, purchased from BD Biosciences). Data analysis was performed by software (BD FACSDiva) to obtain the mean fluorescence intensity (MFI) of the cells. Analysis was then performed by software (GraphPad Prism8), data were fitted, and EC₅₀ values were calculated. […] The same method was used to assay the binding reactions of 1 nM and 10 nM VHH-hFc antibodies with Jurkat cells and endogenous CD5-negative Raji cells, and to assay the binding reactions of 1 nM and 10 nM VHH-hFc antibodies with CHO-K1 cells and CHO-K1-human CD5.
Binder,EC50 [nM],Max MFI [MFI]
B1,0.8,4700
B2,3.47,5920
B3,0.41,5390
B4,4.08,1260
B5,8.22,1050
B6,1.53,3330
B7,3.64,2140
B8,1.19,9750
B9,2.71,3240
B10,0.21,3660
B11,0.75,4090
B12,3.47,5680

# Target: T1, human CD5 (Arg25-Pro372)-His protein …
# Test: ELISA on hCD5-His, antibody 100 nM
# Protocol: as §1, §2
row,Binder,OD450 [OD450]
1,B1,2.82
2,B2,2.5
3,B3,2.4
4,B4,2.43
5,B5,2.6
6,B6,2.16
7,B7,2.43
8,B8,3.18
9,B9,2.34
10,B10,2.66
11,B11,2.45
12,B12,2.67

# Target: T2, human CD5, full length, on cells …
# Test: FACS on Jurkat cells
# Text: as §3
Binder,EC50 [nM],Max MFI [MFI]
B1,0.32,2750
B2,427,2620
B3,0.14,2730
B4,4.7,2100
B5,3.46,1280
B6,0.71,1930
B7,3.85,1290
B8,0.08,1870
B9,4.09,2740
B10,–,1980
B11,1.11,1850
B12,51,2590
